From PubChem BioAssay AID686978 (National Center for Advancing Translational Sciences (NCATS), 2013)
Out of some 420,000 compounds screened, about 64,000 (15%) were called active. The shares of active, inactive and inconclusive entries below differ from those in the screen. The call rests on the fitted dose curve; in most records, active means well fitted inhibition curve with a large enough effect; inconclusive means small, poorly fitted or top-dose-only effect; inactive means flat fitted curve, though single readings scatter. No potency is given beside an inconclusive call; the fits are too rough.

Experiment: qHTS for Inhibitors of human tyrosyl-DNA phosphodiesterase 1 (TDP1): qHTS in cells in absence of CPT; further: nearly all actives have a fitted effect of over 55% in size
Settings: DT40 Tdp1-/- hTDP1 cells, no CPT, ATP luminescence, 48 h; series mostly up to 46.2 µM
In short: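 Camptothecin absent (DMSO only). Human TDP1-complemented DT40 knockout cells, 400 cells/well, 37 °C for minimum 48 hr; ATP measured via CellTiter-Glo, 30 min dark incubation, luminescence.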
Potency means the concentration at half of the fitted maximal effect; tags describe the fitted curve by direction and shape.

SMILES | Potency
O=C(NCC1CC1)C1Cc2c(-c3ccc4c(c3)OCO4)ccnc2O1 (stereo not given) | active: 18.4 µM
COc1ccc(-c2nc3ccccc3s2)cc1 | inactive
CN(C)CCN(C)c1cc2c(c3c1ccn3C)C1CCC2O1 (stereo not given) | inconclusive [inhibitor, single point]
COc1cccc(C(=O)NCCNC(=O)c2ccco2)c1 | inactive
O=[N+]([O-])c1ccn(-c2nc(-c3ccccc3)cc(C(F)(F)F)n2)n1 | inconclusive [inhibitor, single point]
COc1ccc(C)cc1NC(=O)CNC(c1ccccc1)c1ccc(C)cc1 (stereo not given) | active: 3.26 µM
Cc1ccccc1OCc1nnc(SCC(=O)NCc2ccccc2)n1C | inconclusive [inhibitor, single point]
COC/C=C/C1=CC2=CC(=O)C(C)(OC(=O)C3CCCC3)C(=O)C2=CO1 (stereo not given) | inconclusive [inhibitor, partial curve]
O=C(Nc1nc2c(s1)CCCC2)c1ccccc1F | inconclusive [inhibitor, partial curve]
CCCC(C)C(=O)Nc1nnc(CCc2ccccc2)s1 (stereo not given) | inconclusive [inhibitor, single point]
CN1CCN(c2ncc3nc(-c4ccc(F)cc4)c(=O)n(Cc4cccs4)c3n2)CC1 | inconclusive [inhibitor, single point]
Clc1ccc2nc(-c3ccco3)c(Cc3ccsc3)n2c1 | inconclusive [inhibitor, single point]
CC(C)c1ccc(C2=NC(c3ccncc3)=Nc3ccc(F)cc3N2)cc1 | inconclusive [inhibitor, single point]
Cc1onc(-c2ccccc2)c1C(=O)OCC(=O)c1ccc[nH]1 | inconclusive [inhibitor, single point]
Cc1ccc(C)c(NC(=O)c2cc(=O)c3ccccc3o2)c1 | inconclusive [inhibitor, single point]
Fc1ccc(C(CCNCc2cccs2)c2ccco2)cc1 (stereo not given) | inconclusive [inhibitor, single point]
Cc1ccc(NC(=O)c2ccc(N(Cc3ccccc3)S(C)(=O)=O)cc2)cc1 | active: 11.6 µM
CC(=O)c1ccc(N2CCN(C(=S)Nc3cccc(Cl)c3)CC2)cc1 | inconclusive [inhibitor, partial curve]
Cc1cc(Br)c2c(c1)C1(OCCO1)C(=O)N2 | inactive
COC(=O)C(C(=O)OC)c1ccccc1CNS(=O)(=O)c1ccc(C)cc1 | inactive
Cn1c(=O)c2c(nc(NCc3ccccc3)n2C)n(C)c1=O | inactive
CC(=O)c1ccc(NS(=O)(=O)c2ccc(CC(C)C)cc2)cc1 | inconclusive [inhibitor, single point]
Cn1c(=O)c2c(nc(CN3CCOCC3)n2CC(=O)c2ccccc2)n(C)c1=O | inconclusive [inhibitor, single point]
C=CCNc1nc(-c2ccc(OC)cc2OC)cs1 | inconclusive [inhibitor, single point]

SMILES | Potency
Cc1cc(/C=C2/C(=O)NN(c3ccccc3)C2=O)c(C)n1-c1ccc(O)cc1 | active: 18.4 µM
COc1ccc(OC)c(CCNC(=O)c2nn(C)c3c2CSc2ccccc2-3)c1 | inconclusive [inhibitor, single point]
CCOc1ccc(Cn2c(CNS(=O)(=O)c3ccc(CC)cc3)nc3cccnc32)cc1 | inconclusive [inhibitor, single point]
C=CC[C@@H](Cc1ccc(F)cc1)C(=O)OC[C@@H]1CCCN1C(=O)[C@H](CC=C)CC(=O)NCCO | inconclusive [inhibitor, single point]
CC(C)n1c(C(=O)OCC(=O)NCc2ccc3c(c2)OCO3)cc2sccc21 | inconclusive [inhibitor, single point]
CCCn1cc(S(=O)(=O)c2ccc(CC)cc2)c(=O)c2cc(F)c(N3CCN(C)CC3)cc21 | active: 25.9 µM
O=C(NCc1ccccc1)Nc1cccn(Cc2ccccc2F)c1=O | inconclusive [inhibitor, single point]
COC(=O)CC1C(=O)NCCN1C(=O)CSc1nc2ccc([N+](=O)[O-])cc2s1 (stereo not given) | inactive
Clc1ccc(OCCN2CCCCC2)c(Cl)c1 | inactive
C=CCOC(=O)/C(=C/c1cccc2ccccc12)NC(=O)c1ccccc1 | active: 23.1 µM
CCN(Cc1ccncc1)C(=O)c1cc(COc2ccc(OC)cc2Cl)on1 | inconclusive [inhibitor, single point]
COc1ccccc1CNS(=O)(=O)c1cc(-c2cc(C)no2)ccc1C(C)C | inconclusive [inhibitor, single point]
O=C(N/N=C/c1ccc2c(c1)OCO2)c1ccn(Cc2ccc(Cl)cc2)n1 | inactive
O=C(Cc1ccccc1)N1CCCC(c2nc(-c3cccs3)no2)C1 (stereo not given) | inactive
Cc1ccc2c(C)c(C(=O)N(Cc3ccncc3)CC3CCCO3)oc2c1C (stereo not given) | active: 20.6 µM
COc1cccc(C(=O)C2CCCN(Cc3ccc(OC)c(Cn4cncn4)c3)C2)c1 (stereo not given) | inconclusive [inhibitor, single point]
Cc1ccccc1NC(=O)/C(C#N)=C/c1ccc(-c2ccc(Cl)c(C(=O)O)c2)o1 | inconclusive [inhibitor, partial curve]
CCCC(=O)Nc1nc(-c2ccccc2)c(CC)s1 | inconclusive [inhibitor, single point]
N#Cc1ccc(C(=O)N2CCCCC2c2cc(C(=O)Nc3ccc4c(c3)OCO4)no2)cc1 (stereo not given) | active: 23.1 µM
CCN(CC)CCN1C2=C(C(=O)CC(C)(C)C2)C(c2cccc(F)c2)C2=C1CC(C)(C)CC2=O | inconclusive [inhibitor, single point]
Cc1ccsc1C1NC(=O)c2c(sc3c2CCN(C)C3)N1 (stereo not given) | inconclusive [inhibitor, single point]
CC(OC(=O)c1cccc(S(=O)(=O)N2CCCCC2)c1)C(=O)NCC1CCCCC1 (stereo not given) | inconclusive [inhibitor, partial curve, poor fit]
Cc1onc(-c2ccccc2Cl)c1C(=O)Oc1cc(N)n(S(=O)(=O)c2ccc(F)cc2)n1 | inconclusive [inhibitor, single point]
CC(/C=C1\SC(=S)N(NC(=O)c2ccc(C)cc2)C1=O)=C\c1ccccc1 | inconclusive [inhibitor, single point]

SMILES | Potency
COc1ccc(NC(=O)c2c(NCc3cccs3)sc3c2CCCCC3)c(OC)c1 | active: 14.6 µM
Cc1cc(Br)ccc1NC(=O)CCNS(=O)(=O)c1cccc2nonc12 | inconclusive [inhibitor, single point]
Cc1ccc([C@H]2N[C@]3(CCCN(Cc4ccc(F)cc4)C3=O)[C@H]3C(=O)N(Cc4ccccc4)C(=O)[C@@H]23)cc1 | inconclusive [inhibitor, single point]
O=C(Cn1ncc2c3ccccc3n(Cc3ccccc3)c2c1=O)NCCCN1CCCC1 | inconclusive [inhibitor, single point]
CCOC(=O)C1CCN(C(=O)c2sc3nc(C)nc(N4CCC(C)CC4)c3c2C)CC1 | inconclusive [inhibitor, partial curve]
Cc1cc(C)c(S(=O)(=O)N2CCCCC2CCNC(=O)C(=O)NCCN2CCOCC2)c(C)c1 (stereo not given) | inconclusive [inhibitor, single point]
CCOc1ccc2nc(N3CCC(C(=O)NCCCN4CCOCC4)CC3)sc2c1 | inconclusive [inhibitor, single point]
Cn1c2ccccc2c2n[nH]c(=S)nc21 | inconclusive [inhibitor, single point]
Cn1cnnc1SCc1cccc(Br)c1 | inactive
Cc1cccc(CNc2cc(-c3ccoc3)ncn2)c1 | inconclusive [inhibitor, single point]
Cc1ccccc1NS(=O)(=O)c1cc2c3c(c1)C(C)C(=O)N3CCC2 (stereo not given) | inactive
O=S(=O)(Nn1cnnc1)c1ccc(F)cc1 | inactive
Cc1ccccc1NC(=O)C(Cc1ccccc1)n1cccc1 (stereo not given) | inconclusive [inhibitor, partial curve]
Cc1c(Cl)c([N+](=O)[O-])nn1Cc1ccc(C(=O)Nc2ccc(Cl)cn2)o1 | inconclusive [inhibitor, single point]
Clc1ccc(-c2nc(N3CCOCC3)nc3ccccc23)cc1 | inconclusive [inhibitor, single point]
CC(=O)c1ccc(NC(=O)CSc2nnc(Cn3cnc4ccccc43)o2)cc1 | inactive
CCCCOCCCN1CC(=O)N2[C@@H](Cc3c([nH]c4ccccc34)C2(C)C)C1=O | active: 18.4 µM
Cc1ccc(C)c(NCc2n[nH]c(=S)n2-c2ccccc2)c1 | inconclusive [inhibitor, single point]
CC1CCN(C(=O)CN(Cc2ccc(F)cc2)S(C)(=O)=O)CC1 | inactive
O=C(Nc1ccc(Br)cc1F)c1cc2nc(-c3ccco3)cc(C(F)(F)Cl)n2n1 | inactive
O=C(Cc1ccccc1Cl)Nc1cccc(S(=O)(=O)N2CCOCC2)c1 | inconclusive [inhibitor, single point]
COc1ccc(Cn2c(=O)cc(N)n(-c3ccccc3C)c2=O)cc1 | inconclusive [inhibitor, single point]
